Measured values from article PMC12136788.
Where a chain is given by its changes, count along the chain named. Some of the results follow.

T1: UNK ZnF1-3 (human, UniProt Q9C0B0 31-174)
T1 sequence: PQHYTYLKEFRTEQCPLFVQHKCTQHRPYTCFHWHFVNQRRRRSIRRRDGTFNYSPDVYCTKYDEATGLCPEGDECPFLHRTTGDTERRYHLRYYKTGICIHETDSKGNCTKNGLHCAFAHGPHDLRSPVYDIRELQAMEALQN

B1: 122839148_122839268_1072_CDS_ENSMUSG00000057895_ENSMUST00000051667|mouse|control|control (ssRNA)
RNA: GGGAGUUCUACAGUCCGACGAUCUUUCUGAUGGACAGUCAGAUUUGAACUCUGAGUGAAAGCCUUCCCACAUUUUCCACAGACAUAGGGUUUCUGUCCAGUGUGGAUCCUCUGAUGCACAACGAGGUUUGCACUUUGAAUGAACAACAGAGGAUUGAGCAUCA
B2: chr1:78444685:78444686:-_ENSG00000162613_ENST00000370768|hu_hu|motif|central (ssRNA)
RNA: GGGAGUUCUACAGUCCGACGAUCACCAGCUGAGCCAGAAGAGGGGGGAGGCACUGUUGAAUAGUCUGCCAUGGUUGCACGGUAAGAGCCGCUGCCGCCUGUUCAGAGACUUCCUCUCAGCUAACAGCUAAGAAAGAAAGAAAACAACAGAGGAUUGAGCAUCA
B3: chr3:108363203:108363204:-_ENSMUSG00000068732_ENSMUST00000090546|mus_mus|FALSE|FALSE (ssRNA)
RNA: GGGAGUUCUACAGUCCGACGAUCCCAGGUUUUGAGACGAGGUACUUUCUUGAAGUAGGCACAGGUGCAAACAAAGAGCAAACCAAACACCAGGAUCCCAUCCAAGGAGUACACGUUCGUCAUGGCGGUAGUGCCCGGCUGGGGCAACAGAGGAUUGAGCAUCA
B4: chr1:74301520:74301521:+_ENSMUSG00000006304_ENSMUST00000006467|perfect_dup|FALSE|FALSE (ssRNA)
RNA: GGGAGUUCUACAGUCCGACGAUCGAAGACUACUGUGACUCUGUCUUUCUUAGAUUCCACAUACAUGGUCUCAUCAUCCCUAUAAUGGAUAACUGCUCUGUUCUCUCCUUCUUUGCCCUCUUCUUGGAAUUGGAAGUAUUUCUCCAACAGAGGAUUGAGCAUCA
B5: chr16:89885150:89885151:-_ENSMUSG00000002489_ENSMUST00000163370|mus_mus|FALSE|FALSE (ssRNA)
RNA: GGGAGUUCUACAGUCCGACGAUCGCUCUGCUCAUCGCUGUGCGCAGAGCCAGCCUCCUCCAGGCUCUCACUGUUGGUGGUACUCAUCUCCAGUUCCCGCCUGAAGUUCUCGUACACCCCCUGGCGCGCAGCAUCCCCUGUUGACAACAGAGGAUUGAGCAUCA
B6: 103551391_103553149_608_3pUTR_ENSMUSG00000033004_ENSMUST00000161008|mouse|control|control (ssRNA)
RNA: GGGAGUUCUACAGUCCGACGAUCCAUCAGGAGUUACUGAUAUGUAUGGGGCAGGGACAGAUGUAGAACGCAGAUAUCUCAUUUCGUCCUGGAAUAGGUUGUCGUCUUGAUAGCCCACAAAAUUUUCAUGGUGGUGCCUAGCUACAACAGAGGAUUGAGCAUCA
B7: chr3:38349274:38349275:-_ENSMUSG00000044864_ENSMUST00000156038|mus_hu|FALSE|FALSE (ssRNA)
RNA: GGGAGUUCUACAGUCCGACGAUCGAAACAAAUAAGCAAGGCAGGGCAUCUCCAGCACCCAUCCUAUCAUCCUUAUCCUAACUCAAAGUCAUUUAUGUUCUAUUCCAAAACAUAAUUUAUAUAAAAACAUCCCGAGGAAUACUUCAACAGAGGAUUGAGCAUCA
B8: 81576995_81577115_532_CDS_ENSMUSG00000032705_ENSMUST00000038185|mouse|control|control (ssRNA)
RNA: GGGAGUUCUACAGUCCGACGAUCGAUUUGAUUCCACUCUGCCUCCUGAGAUACCGUCACCACCUCUGCCUGGAGUAUCCUCUCCUCCCAUGAGGCUCUGGGUGCUCUCAGGGCACCAAAGGGUAGCUGGUCAUCUUCUGGAGGCAACAGAGGAUUGAGCAUCA
B9: 100119613_100119733_569_CDS_ENSG00000154174_ENST00000284320|human|control|control (ssRNA)
RNA: GGGAGUUCUACAGUCCGACGAUCACUCCACAGGUAUAUGGCACCCGCGCCCAGCAGCAGGGGUGCCCCGACCGCCAGAGCCAGCUGCCAUCGCGGCAGCCCCCCCGUGCCCGGGCCCGCAGUCCCGCCGCCGCCCACCCCACUCAACAGAGGAUUGAGCAUCA
B10: chr5:21408736:21408737:-_ENSMUSG00000042453_ENSMUST00000161356|mus_hu|mus_mus_mus_hu_False|8_58 (ssRNA)
RNA: GGGAGUUCUACAGUCCGACGAUCGUUGACAGAGUUGUAGAUGGUGGCUUCAUGGAACUGGAAAGGGGAGCAGCCAAUGCUAUUGGAAGAGGAAGGAAGGCACUGGGUCUGUACGAGCUGCCAGGAAUCGGACCUUGCAUCCUUCAACAGAGGAUUGAGCAUCA
B11: chr17:62496016:62496017:-_ENSG00000108654_ENST00000581693|hu_hu|FALSE|FALSE (ssRNA)
RNA: GGGAGUUCUACAGUCCGACGAUCCAGAUAACACACAAUAUAAAGAGCAAUUAUGAAAAACAGACAUUUACAUAUACUUCUAAAGUCUUAUUGGGAAUAUCCUGUUGGCAUUGGAUAACCAAUCAUAGGUGCAGCUGCAGUAGCCAACAGAGGAUUGAGCAUCA
B12: chr17:4849111:4849112:-_ENSG00000108518_ENST00000225655|hu_mus|FALSE|FALSE (ssRNA)
RNA: GGGAGUUCUACAGUCCGACGAUCCCAGCCCCCAGCCCAUGUGGUUUUGGCAGCAAUAAGGGAAAUGGGGUAAUGGCCCAAAAAAUAAUGGUAUGUGUGUGUAUGGAAAGAAGGGGGUGCAAAAGCCAAAGGGAACGGUGGGGGCAACAGAGGAUUGAGCAUCA
B13: 90087342_90087766_2954_CDS_ENSMUSG00000032363_ENSMUST00000113059|mouse|control|control (ssRNA)
RNA: GGGAGUUCUACAGUCCGACGAUCCCGAAUGCCAGCUCCACAUGUCACAGAGCACUGAGACCAGUUCCCCACACCCCAAGUGGAAGGACAGAUUACAUGACGGUUGCACGGGGUUUCAGCCAGGGGACGGGGAAGAUGUUCGCACAACAGAGGAUUGAGCAUCA
B14: chr2:9570881:9570882:+_ENSG00000119203_ENST00000238112|hu_mus|hu_hu_hu_mus_False|18_48 (ssRNA)
RNA: GGGAGUUCUACAGUCCGACGAUCACUUGUCUUCUGAAGGAACCAGGGCAGGGCUCCACAGUGAUCCAAAUGGAAAUGACUGAUCAAUAGGAGAUCAAUCUCAGCUGGGUCGAUAAGAUCAAUAUAAGGAAGGGCAUCCAUUCCCAACAGAGGAUUGAGCAUCA
B15: chr3:170078963:170078964:+_ENSG00000136603_ENST00000458537|hu_mus|FALSE|FALSE (ssRNA)
RNA: GGGAGUUCUACAGUCCGACGAUCGGGAGCAAACAUUCCACAGCACUCCAGGCACUGGAUACAGGGAGCGUCGGGCUGAACAUAAAACUGAGGCGCAAAGAGACCCUGACAUUUGCCCAAGCAUUCAUGUUCCACUUCAAAGGCCAACAGAGGAUUGAGCAUCA
B16: chr11:29608385:29608386:+_ENSMUSG00000020458_ENSMUST00000102843|mus_mus|FALSE|FALSE (ssRNA)
RNA: GGGAGUUCUACAGUCCGACGAUCGUCAGUGUACUCCUUAGGAGAAUCAUCUUUAGCACUGACAAAUGUGGGAAACUCAUCUAUUAUCUCAAUGGGAGAUGAAUCGGAAAAUGUUUCACUUUCUUUCAUUUUGUCUUCCUUAGACAACAGAGGAUUGAGCAUCA
B17: 32038138_32038754_431_3pUTR_ENSMUSG00000039262_ENSMUST00000036691|mouse|control|control (ssRNA)
RNA: GGGAGUUCUACAGUCCGACGAUCUUGGGGUCGUUUCCUUUGUUUUCAGACUUCAGGCUUGGCAGGUUUGCAGGCGGUGGCAUACGCCGGGCUGUGGCAACUUUCCCGAGACUCUGUAAGCCAUGUCUAGGAAUAACUGAGGACCAACAGAGGAUUGAGCAUCA
B18: chr4:110441554:110441555:+_ENSG00000138802_ENST00000265175|hu_hu|FALSE|FALSE (ssRNA)
RNA: GGGAGUUCUACAGUCCGACGAUCUGAUAAUCCUUCUUGUAAAUUGUAGAAAUGAAUAGUGCUAUCAAAGGUCAUGAAUCCUAUUCUUGUUCGUGAAUCUCCAGGAAGCUUGUCUAGAUUUUCUAGGAGUGACUGGCACAAAAUCAACAGAGGAUUGAGCAUCA
B19: chr7:151048522:151048523:+_ENSG00000013374_ENST00000566856|hu_mus|hu_hu_hu_mus_True|18_38 (ssRNA)
RNA: GGGAGUUCUACAGUCCGACGAUCCUGUUUCUUAUUUAUUACGAUCUUGAUGUAAUUUUCUUGAAAUCCGAAAGUUUCAGCUAUUUGACACCUCAGGUCUCUGCCAGUGACAUGCAAUCGGGUCUCCAACAAGCUUUUCUUAUCCAACAGAGGAUUGAGCAUCA
B20: chr12:72996793:72996794:+_ENSMUSG00000034574_ENSMUST00000085299|mus_mus|motif|central (ssRNA)
RNA: GGGAGUUCUACAGUCCGACGAUCAGGGGGCAUGGGCAGCGCCGGCUCCAUUGUCUGAAGUGCAAAGUUGCUAUCAUUCCGGAGCCGAUAUGUGAUUUCUGGAUGGUCAUUGUUUCGGAAACAGCAAAAGAUAAAUGAAAUCCCCAACAGAGGAUUGAGCAUCA
B21: 153574126_153574246_309_5pUTR_ENSG00000196504_ENST00000410080|human|control|control (ssRNA)
RNA: GGGAGUUCUACAGUCCGACGAUCCACUCGGCGUCGCCUGCAUGGGGGGGGGGGAGGAGGAGGACGGAGGAAGUUUCUGCGCCGAGUCCUCCGUCGGGAAAACUCUACCAACUUCCCCAGGGGAAGGGAAGACAACAGUGUCCCCAACAGAGGAUUGAGCAUCA
B22: chr2:9570881:9570882:+_ENSG00000119203_ENST00000238112|hu_mus|hu_hu_hu_mus_False|48_98 (ssRNA)
RNA: B14 RNA with G39A, A117G, A123G

These binders were tested against T1, UNK ZnF1-3 (assay: nsRBNS (natural sequence RNA bind-n-seq); RBNS binding buffer (assumed for nsRBNS): 25 mM Tris pH 7.5, 150 mM KCl, 3 mM MgCl2, 0.01% Triton X-100, 500 ug/ml BSA, 20 U/ml SUPERase-In, 4 C; UNK is unkempt and MSI1 is Musashi-1; names of the RNAs are library labels; protein concentration not given here; high values mean tight binding).

| Binder | binding signal |
| --- | --- |
| B1 | 0.676 enrichment R |
| B2 | 1.41 enrichment R |
| B3 | 1.15 enrichment R |
| B4 | 0.656 enrichment R |
| B5 | 0.626 enrichment R |
| B6 | 1.2 enrichment R |
| B7 | 1.58 enrichment R |
| B8 | 0.316 enrichment R |
| B9 | 0 enrichment R |
| B10 | 1.76 enrichment R |
| B11 | 1.48 enrichment R |
| B12 | 2.85 enrichment R |
| B13 | 1.92 enrichment R |
| B14 | 0.8 enrichment R |
| B15 | 1.78 enrichment R |
| B16 | 0.252 enrichment R |
| B17 | 0.999 enrichment R |
| B18 | 1.18 enrichment R |
| B19 | 0.686 enrichment R |
| B20 | 0.921 enrichment R |
| B21 | 1.47 enrichment R |
| B22 | 1.06 enrichment R |
